# In all, about 420,000 compounds went through this assay and about 64,000 (15%) were called active. The inconclusive results got no clear call from the source; some entries with a clear call stand among them for comparison. The call rests on the fitted dose curve; in most records, active means well fitted inhibition curve with a large enough effect; inconclusive means small, poorly fitted or top-dose-only effect; inactive means flat fitted curve, though single readings scatter. No potency is given beside an inconclusive call; the fits are too rough.
# Experiment: qHTS for Inhibitors of human tyrosyl-DNA phosphodiesterase 1 (TDP1): qHTS in cells in absence of CPT; further: nearly all actives have a fitted effect of over 55% in size
# Details: DT40 Tdp1-/- hTDP1 cells, no CPT, ATP luminescence, 48 h; activity change, negative = growth inhibition: at 46.2 µM (top of the series) unless noted
# Summary of the method: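 Readout: luminescence from CellTiter-Glo after 30 min in the dark at RT. Cells: DT40 Tdp1-/- with stable hTDP1, 400/well. Exposure: compounds alone, ≥48 hr, 37 °C.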
# On the % scale 0 is the no-effect control and ±100 the full control effect; potency means the concentration at half of the fitted maximal effect; tags describe the fitted curve by direction and shape.
SMILES,"activity change, negative = growth inhibition",Potency
COc1cc(C(=O)Nc2ccc(OCc3cc(=O)n4cc(C)sc4n3)cc2)cc(OC)c1OC,inactive: -12.9%,–
CCOC(=O)c1ccc2c(c1)sc(=NC(=O)c1ccco1)n2CCOC,–,"inconclusive [inhibitor, single point]"
CCOC(=O)N1CCC(NC(=O)C2CCN(Cc3nc(-c4ccc(CC)cc4)oc3C)CC2)CC1,–,"inconclusive [inhibitor, partial curve]"
O=C(NCCc1ccccc1)c1c[nH]c2ccc(S(=O)(=O)Nc3ccccc3F)cc2c1=O,inconclusive: -30.1% [inhibitor],–
NC(=O)COC(=O)c1ccc2noc(-c3ccccc3)c2c1,inactive: 13.8%,–
CC1CCC2C(=O)N(c3ccc(NC4CCN(Cc5ccccc5)CC4)c([N+](=O)[O-])c3)C(=O)C2C1 (stereo not given),–,active: 16.4 µM
Oc1cccc(C(=S)N2CCCCC2)c1,–,"inconclusive [inhibitor, partial curve, poor fit]"
C=CCN(CC=C)C(=O)C1CCC(C(=O)N(CC=C)CC=C)CC1 (stereo not given),inactive: -26.4%,–
COc1ccccc1CN(C)C(=O)C(NC(=O)Cc1cccc2ccccc12)C(C)C (stereo not given),–,active: 23.1 µM
O=C(/C=C/c1ccco1)NC(=S)Nc1cc(C(F)(F)F)ccc1N1CCOCC1,–,"inconclusive [inhibitor, single point]"
COc1ccc(NC(=O)Nc2nnc(N(C)C3CCCCC3)s2)c(OC)c1,–,"inconclusive [inhibitor, single point]"
O=C(c1ccc(S(=O)(=O)Nc2ccccc2)cc1)N1CCCCCCC1,–,"inconclusive [inhibitor, partial curve, poor fit]"
C=CCNC(=O)c1cnn(-c2ccccc2)c1-c1ccccc1,–,"inconclusive [inhibitor, partial curve, poor fit]"
COc1ccc(OC)c(NC(=O)N[C@H](Cc2ccccc2)C(=O)NN)c1,inactive: 9.7%,–
CCCCn1c(=O)[nH]c(=O)c2c1nc(-c1cc(Cl)c(OC)c(OC)c1)n2C,–,"inconclusive [inhibitor, partial curve]"
COc1ccc(CC(N)c2csc(NC(=O)c3cccs3)n2)cc1 (stereo not given),–,active: 23.1 µM
CC(C)(C)NC(=O)COC(=O)c1ccccc1Oc1ccccc1,inactive: -5.02%,–
CCCCc1n[nH]c2c1C(=O)CC(C)(C)C2,–,"inconclusive [inhibitor, single point]"
COc1ccc(N=C(C)C2C(=O)c3ccccc3C2=O)cc1,–,"inconclusive [inhibitor, single point]"
NC(=O)CC(NC(=O)c1cccc(Br)c1)c1ccc(N2CCC(N3CCCC3)CC2)c([N+](=O)[O-])c1 (stereo not given),inactive: -19.3%,–

# From PubChem BioAssay AID686978 (National Center for Advancing Translational Sciences (NCATS), 2013)
